# Source: PMC4336329 (PLoS ONE, 2015)
# Among all 310,000 compounds or so, about 14,000 (4.5%) showed an effect of 50% or more. Effects have a minus sign here. This is one part of the list. Where a SMILES comes first, the peptide text is derived from it. [ ]: non-standard residue; d: D form. The star is where a group is joined. ξ: configuration not given here. Cbz = O=C(OCc1ccccc1)*; ξL = CC(C)CC(N)C(=O)O; ξP = O=C(O)C1CCCN1
# Biological target: human ether-à-go-go-related gene (hERG) potassium channel (human, UniProt Q12809)
# Experiment: primary screen, population patch clamp on CHO cells stably expressing hERG
# 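Also: peak tail current of the secondary pulse compared with the same well before compound.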
# Chain of human ether-à-go-go-related gene (hERG) potassium channel (Q12809 whole entry, looked up): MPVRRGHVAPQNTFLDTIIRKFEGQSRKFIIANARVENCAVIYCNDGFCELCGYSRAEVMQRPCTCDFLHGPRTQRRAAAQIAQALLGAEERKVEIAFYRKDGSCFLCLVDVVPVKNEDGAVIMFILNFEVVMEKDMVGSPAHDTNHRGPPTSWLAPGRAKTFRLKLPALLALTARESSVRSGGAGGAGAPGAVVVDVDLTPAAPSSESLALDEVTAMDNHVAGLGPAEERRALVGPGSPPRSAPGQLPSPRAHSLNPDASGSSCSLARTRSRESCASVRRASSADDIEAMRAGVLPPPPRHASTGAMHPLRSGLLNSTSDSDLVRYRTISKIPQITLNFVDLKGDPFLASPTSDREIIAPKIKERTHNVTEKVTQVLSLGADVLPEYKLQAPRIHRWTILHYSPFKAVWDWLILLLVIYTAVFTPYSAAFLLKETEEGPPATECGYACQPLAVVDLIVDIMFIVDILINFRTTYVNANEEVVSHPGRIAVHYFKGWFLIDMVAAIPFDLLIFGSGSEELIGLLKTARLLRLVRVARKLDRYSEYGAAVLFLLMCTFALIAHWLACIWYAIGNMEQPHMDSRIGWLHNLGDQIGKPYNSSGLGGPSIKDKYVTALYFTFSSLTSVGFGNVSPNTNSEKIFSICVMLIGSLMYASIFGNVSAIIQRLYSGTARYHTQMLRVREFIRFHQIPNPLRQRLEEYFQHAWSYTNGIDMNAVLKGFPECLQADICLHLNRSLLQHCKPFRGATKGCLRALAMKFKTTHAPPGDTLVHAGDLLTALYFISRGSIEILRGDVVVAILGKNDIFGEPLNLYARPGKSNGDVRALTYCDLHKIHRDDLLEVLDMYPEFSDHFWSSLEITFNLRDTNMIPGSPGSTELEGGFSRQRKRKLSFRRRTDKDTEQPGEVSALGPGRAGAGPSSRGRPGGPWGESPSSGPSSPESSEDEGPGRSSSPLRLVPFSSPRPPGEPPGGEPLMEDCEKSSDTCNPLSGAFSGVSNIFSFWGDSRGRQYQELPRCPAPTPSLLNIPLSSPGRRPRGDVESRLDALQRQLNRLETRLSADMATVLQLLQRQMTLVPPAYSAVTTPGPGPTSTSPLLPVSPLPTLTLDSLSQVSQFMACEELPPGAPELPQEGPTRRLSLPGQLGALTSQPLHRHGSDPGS
row,SMILES,"hERG current change (%, negative = inhibition) at 10uM [%]"
1,C[C@]12CC[C@@H]3c4ccc(O)cc4CC[C@H]3[C@@H]1CC[C@@H]2OC(=O)CCC(=O)O,24.9
2,CS(=O)(=O)c1ccc(-c2cccc(NC(=O)c3ccco3)c2)nn1,9.27
3,CCSc1nnc([C@H](Cc2ccccc2)NC(=O)OC(C)(C)C)o1,-11.6
4,COc1ccc(OC)c(S(=O)(=O)Nc2cccnc2)c1,5.18
5,Cc1ccc(CN2CCCC(C(=O)N3CCCC3)C2)cc1.O=C(O)C(=O)O (stereo not shown),-5.83
6,O=[N+]([O-])c1ccc(C(O)C23CN4CN(CN(C4)C2)C3)cc1 (stereo not shown),24.9
7,CC(C)CC(NC(=O)C1CCCN1C(=O)[C@@H](C)NC(=O)OCc1ccccc1)C(=O)NCC(N)=O (stereo partly shown) (Cbz-[dA][ξP][ξL]G-NH2),1.76
8,CN1CCc2c(sc3c2C(=O)NC(c2ccc(-c4cccc(Cl)c4)o2)N3)C1 (stereo not shown),-33.6
9,COc1ccccc1CN(C)C(=O)c1cccc(S(=O)(=O)N2CCCC2)c1,-5.48
10,Cc1cccc(-[n+]2c(-c3cccc(Br)c3)[nH]c3nc4ccccc4nc32)c1,12.9
11,O=C(c1ccc(F)cc1)c1cn(Cc2ccc(F)cc2)c2cc3c(cc2c1=O)OCCO3,-71.1
12,COc1cc2nc(=S)n3[nH]c(CCn4nc(C)cc4C)nc3c2cc1OC,12.5
13,Cc1ccc(S(=O)(=O)/N=C/c2ccc(N(C)C)cc2)cc1,19.5
14,COc1ccc(NS(=O)(=O)c2cc(NC(=O)c3cc(F)c(F)c(F)c3F)ccc2N2CCCC2)cc1,-1.13
15,Cc1cccn2c(=O)c(/C=C(\C#N)S(=O)(=O)c3ccc(Cl)cc3)c(N3CCC(C(N)=O)CC3)nc12,-77.8
16,CC1CN(C(=O)CCC(=O)N2CCCCC2)c2cc(Cl)ccc2O1 (stereo not shown),-2.56
17,O=C(N/N=C/c1cccc([N+](=O)[O-])c1)c1cc[n+](CCO)cc1.[Cl-],19.9
18,CC(Oc1ccccc1)c1ccnc2nc(N3CCOCC3)nn12 (stereo not shown),-2.09
19,Cc1scc(-c2n[nH]c(=S)n2C(C)c2ccccc2)c1C (stereo not shown),-7.97
20,O=C(Nc1ccc(Cl)cc1)c1cc(Br)ccc1OCC(=O)N1CCOCC1,5.76
21,O=C(O)c1ccc(OCc2cn3ccccc3n2)cc1,-5.59
22,COc1ccccc1NC(=S)NC(=O)/C=C/c1cccs1,18.3

row,SMILES,"hERG current change (%, negative = inhibition) at 10uM [%]"
1,O=c1cc(O)c2ccccc2n1Cc1ccccc1Cl,8.82
2,COCCN1CCN(C(=O)c2ccc3oc(CCCc4ccccc4)nc3c2)CC1,0.632
3,Cc1cccc(NC(=O)N2C[C@H]3C[C@@H](C2)c2cccc(=O)n2C3)c1,5.3
4,CC(C)CNC(=O)c1ccc(C2SCC(=O)N2Cc2ccccc2)cc1 (stereo not shown),-16.6
5,O=C1c2ccccc2NC2CCCCC12 (stereo not shown),9.29
6,CC(C)(C)C1=C(C#N)C(c2cc3c(cc2Br)OCO3)C(C#N)=C(N)O1 (stereo not shown),10.2
7,O=C1NC(=O)C2(Cc3ccccc3N3CCOCC32)C(=O)N1c1ccccc1 (stereo not shown),-6.1
8,COCCCNCCOCCOc1c(OC)cccc1OC,3.46
9,CC(NC(=O)c1ccco1)C(=O)O (stereo not shown),-15.9
10,CC(C)NS(=O)(=O)c1ccc(NC(=O)C(C)OC(=O)CCC2CCCC2)cc1 (stereo not shown),7.06
11,Cc1ccc(C)c(N2CCN(C3CCCC(C)C3)CC2)c1 (stereo not shown),-30.6
12,O=C(Nc1cccc(Cl)c1)c1ccc(NC2=NC3CS(=O)(=O)CC3S2)cc1 (stereo not shown),2.64
13,CCN(CCO)C(=O)C12CCC(C)(C(=O)C1)C2(C)C (stereo not shown),-9.66
14,O=C(COc1cc2oc(=O)cc(-c3ccccc3)c2cc1Cl)NCc1ccccn1,-1.74
15,CCCCNC(=O)[C@@](CC)(ONc1ccccc1C(F)(F)F)c1cccc2ccccc12,6.14
16,CC(=O)N1c2ccc(S(=O)(=O)NCC3CCC(C(=O)N4CCCCC4)CC3)cc2CC1C (stereo not shown),12.2
17,COc1ccccc1NC(=O)CC(=O)CSc1nnc(-c2ccc(C)cc2)n1C,-14.4
18,COc1cc(NC(=O)CN(c2ccc(C)cc2)S(=O)(=O)c2c(C)nn(C)c2C)cc(OC)c1,-5.35
19,Cc1oc2c(c(C)cc3oc(=O)c(CC(=O)NCCCN4CCCC4=O)c(C)c32)c1C,-0.519
20,Cc1cccc(CCNC(=O)CNS(=O)(=O)c2ccc3nc(C)sc3c2)c1,-12
21,CC(=O)c1sc(Nc2nc(C)cc(C)n2)nc1C,-6.22
